These results are taken from US20240228579A1 (Innovent, published 2024).

For this assay, the target named is T1, Claudin18.2 (cp0007, Genscript) (UniProt P56856-2 1-261, limits assumed).
T1 construct: Bought antigen used in BLI; also called Claudin18.2 antigen; the antigen
T1 sequence (looked up): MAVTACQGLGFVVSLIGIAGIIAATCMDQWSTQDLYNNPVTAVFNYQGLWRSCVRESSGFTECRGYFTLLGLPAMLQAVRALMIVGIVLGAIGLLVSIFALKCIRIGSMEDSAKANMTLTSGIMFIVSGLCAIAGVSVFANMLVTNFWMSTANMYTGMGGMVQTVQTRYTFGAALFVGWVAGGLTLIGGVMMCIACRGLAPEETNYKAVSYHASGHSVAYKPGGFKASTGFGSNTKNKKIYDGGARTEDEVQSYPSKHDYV
As to the kind of experiment: BLI (Octet), antibody on AHC sensor, Claudin18.2 100 nM.

B1: Fcmut-01 (antibody, human IgG1, kappa)
heavy: QVQLVQSGAEVKKPGSSVKVSCKASGYSFSSYNIHWVRQAPGQGLEWMGYIAPFQGDSRYNQKFKGRVTITADKSTSTAYMELSSLRSEDTAVYYCARLNRGNSLDYWGQGTLVTVSS[human IgG1 constant region not printed]
light: DIVMTQSPDSLAVSLGERATINCKSSQSLFNSGNQRNYLTWYQQKPGQPPKLLIYWASTRESGVPDRFSGSGSGTDFTLTISSLQAEDVAVYYCQNNYIYPLTFGGGTKVEIKRTVAAPSVFIFPPSDEQLKSGTASVVCLLNNFYPREAKVQWKVDNALQSGNSQESVTEQDSKDSTYSLSSTLTLSKADYEKHKVYACEVTHQGLSSPVTKSFNRGEC
notes: IgG1-WT monoclonal antibody against human claudin18.2; parent and control of Fcmut-02 to Fcmut-24; Biotin-labelled in the C1q assay
B1: the Kd is at most 3.32 nM, the Response was determined as 0.149 nm and the kon amounted to 60200 M⁻¹ s⁻¹.

B2: Fcmut-05 (antibody, human IgG1, kappa, L234A L235A)
heavy: QVQLVQSGAEVKKPGSSVKVSCKASGYSFSSYNIHWVRQAPGQGLEWMGYIAPFQGDSRYNQKFKGRVTITADKSTSTAYMELSSLRSEDTAVYYCARLNRGNSLDYWGQGTLVTVSSASTKGPSVFPLAPSSKSTSGGTAALGCLVKDYFPEPVTVSWNSGALTSGVHTFPAVLQSSGLYSLSSVVTVPSSSLGTQTYICNVNHKPSNTKVDKKV[human IgG1 Fc with changes not printed]
light: DIVMTQSPDSLAVSLGERATINCKSSQSLFNSGNQRNYLTWYQQKPGQPPKLLIYWASTRESGVPDRFSGSGSGTDFTLTISSLQAEDVAVYYCQNNYIYPLTFGGGTKVEIKRTVAAPSVFIFPPSDEQLKSGTASVVCLLNNFYPREAKVQWKVDNALQSGNSQESVTEQDSKDSTYSLSSTLTLSKADYEKHKVYACEVTHQGLSSPVTKSFNRGEC
notes: IgG1-mut of Fcmut-01: L234A + L235A (EU index); also called LALA mutation
Turning to B2, binding was put at a Kd of 3.17 nM, the Response came out at 0.153 nm, the koff was 0.0002 s⁻¹ and the kon turned out to be 63200 M⁻¹ s⁻¹.

The term Kd denotes the equilibrium constant for the complex coming apart. A lower Kd goes with higher affinity. What is called kon is the second-order rate constant of association. Usually koff stands for a measure of how fast the partners let go of each other. A higher koff goes with a short-lived complex.
